Test results taken from patent US20190209506A1, “METHODS OF REDUCING OR PREVENTING OXIDATION OF LDL OR LIPID MEMBRANES IN A SUBJECT IN NEED THEREOF” (Amarin Pharmaceuticals Ireland Limited, priority 2018, published 2019).
“And” between values parts separate entries of the source, which are not always exact repeats. Equal entries are not always repeated. This continues a long series; more values of the same kind are listed elsewhere.

Test system: human LDL
Test: Copper-induced LDL oxidation, dose and time dependence, MDA (Example 17)
Assay type: biochemical
Description: LDL was isolated from human plasma by isopycnic centrifugation, separated into test samples of 100 μg/mL, and incubated at 37° C. for 30 min in the absence (vehicle) or presence of EPA over a range of concentrations of 1 to 10 μM. The samples were subsequently subjected to copper-induced oxidation. Following the copper-induced oxidation, LDL oxidation was measured over the course of six hours. Tables 8 and 9 enumerate the changes in MDA concentration expressed as molar equivalents for each of the vehicle and EPA test samples as a function of time (i.e., at 0 hours, 1 hour, 2 hours, 2.5 hours, and 3 hours).

CC/C=C\C/C=C\C/C=C\C/C=C\C/C=C\CCCC(=O)O [EPA, cis-5,8,11,14,17-eicosapentaenoic acid]
MDA Equivalent (EPA 1.0 μM, 3.5 Hour): 10.83 µM
MDA Equivalent (EPA 1.0 μM, 4 Hour): 9.94 µM
MDA Equivalent (EPA 1.0 μM, 6 Hour): 9.72 µM
MDA Equivalent (EPA 2.0 μM, 3 Hour): 8.81 µM and 9.11 µM and 9.33 µM
MDA Equivalent (EPA 2.0 μM, 3.5 Hour): 10.15 µM and 10.54 µM and 10.11 µM
MDA Equivalent (EPA 2.0 μM, 4 Hour): 9.48 µM and 9.79 µM and 9.96 µM
MDA Equivalent (EPA 2.0 μM, 6 Hour): 9.40 µM and 9.51 µM and 10.31 µM
MDA Equivalent (EPA 3.0 μM, 3 Hour): 5.76 µM and 6.45 µM and 6.29 µM
MDA Equivalent (EPA 3.0 μM, 3.5 Hour): 8.99 µM and 9.34 µM and 8.95 µM
MDA Equivalent (EPA 3.0 μM, 4 Hour): 9.72 µM and 9.92 µM and 9.91 µM
MDA Equivalent (EPA 3.0 μM, 6 Hour): 10.36 µM and 10.61 µM and 10.44 µM
MDA Equivalent (EPA 3.5 μM, 3 Hour): 2.28 µM and 2.61 µM and 1.39 µM
MDA Equivalent (EPA 3.5 μM, 3.5 Hour): 4.80 µM and 5.58 µM and 2.94 µM
MDA Equivalent (EPA 3.5 μM, 4 Hour): 7.07 µM and 7.76 µM and 5.08 µM
MDA Equivalent (EPA 3.5 μM, 6 Hour): 10.01 µM and 10.29 µM and 10.46 µM
MDA Equivalent (EPA 4.0 μM, 3 Hour): 2.35 µM and 1.43 µM
MDA Equivalent (EPA 4.0 μM, 6 Hour): 11.45 µM and 10.37 µM and 10.33 µM
MDA Equivalent (EPA 4.5 μM, 3 Hour): 0.61 µM and 0.51 µM and 0.53 µM
MDA Equivalent (EPA 4.5 μM, 3.5 Hour): 1.04 µM and 0.92 µM and 0.96 µM
MDA Equivalent (EPA 4.5 μM, 4 Hour): 1.27 µM and 1.03 µM and 1.15 µM
MDA Equivalent (EPA 4.5 μM, 6 Hour): 7.40 µM and 6.84 µM and 7.53 µM
MDA Equivalent (EPA 5.0 μM, 3 Hour): 0.37 µM and 0.38 µM and 0.42 µM
MDA Equivalent (EPA 5.0 μM, 3.5 Hour): 0.71 µM and 0.69 µM and 0.82 µM
MDA Equivalent (EPA 5.0 μM, 4 Hour): 0.71 µM and 0.84 µM and 0.96 µM
MDA Equivalent (EPA 5.0 μM, 6 Hour): 5.15 µM and 5.42 µM and 5.96 µM
MDA Equivalent (EPA 10.0 μM, 3 Hour): 0.13 µM and 0.11 µM and 0.07 µM
MDA Equivalent (EPA 10.0 μM, 3.5 Hour): 0.28 µM and 0.19 µM and 0.21 µM
MDA Equivalent (EPA 10.0 μM, 6 Hour): 1.01 µM and 0.87 µM and 0.82 µM
